Assay results: PubChem BioAssay AID504339 (National Center for Advancing Translational Sciences (NCATS), 2011)
In all, about 390,000 compounds went through this assay and about 17,000 (4.4%) were called active. The shares of active, inactive and inconclusive entries below differ from those in the screen. Calls follow the shape of the dose curve; as a rule, active = well fitted inhibition curve with a large enough effect; inconclusive = small, poorly fitted or top-dose-only effect; inactive = no such curve, though single readings can be large or run the other way. Potencies of inconclusive entries are doubtful fits and often do not repeat. Peptide text beside a SMILES is read from it. * marks the point of attachment. Boc = CC(C)(C)OC(=O)*

The compounds below were run against Lysine-specific demethylase 4A (Homo sapiens) (UniProt O75164) (assay: qHTS Assay for Inhibitors of JMJD2A-Tudor Domain). Settings: AlphaScreen JMJD2A-Tudor / H3K4me3 peptide binding; activity change, negative = inhibition: at 114 µM (top of the series).
% is scaled to controls: 0 for no effect and ±100 for the full control effect; potency is read from the fitted curve at half-maximal effect; tags tell the direction and shape of the fitted curve.
Also: nearly all actives have a fitted effect of over 50% in size.

Sequence of UniProt O75164 (O75164 whole entry, looked up, the tested form may be a part): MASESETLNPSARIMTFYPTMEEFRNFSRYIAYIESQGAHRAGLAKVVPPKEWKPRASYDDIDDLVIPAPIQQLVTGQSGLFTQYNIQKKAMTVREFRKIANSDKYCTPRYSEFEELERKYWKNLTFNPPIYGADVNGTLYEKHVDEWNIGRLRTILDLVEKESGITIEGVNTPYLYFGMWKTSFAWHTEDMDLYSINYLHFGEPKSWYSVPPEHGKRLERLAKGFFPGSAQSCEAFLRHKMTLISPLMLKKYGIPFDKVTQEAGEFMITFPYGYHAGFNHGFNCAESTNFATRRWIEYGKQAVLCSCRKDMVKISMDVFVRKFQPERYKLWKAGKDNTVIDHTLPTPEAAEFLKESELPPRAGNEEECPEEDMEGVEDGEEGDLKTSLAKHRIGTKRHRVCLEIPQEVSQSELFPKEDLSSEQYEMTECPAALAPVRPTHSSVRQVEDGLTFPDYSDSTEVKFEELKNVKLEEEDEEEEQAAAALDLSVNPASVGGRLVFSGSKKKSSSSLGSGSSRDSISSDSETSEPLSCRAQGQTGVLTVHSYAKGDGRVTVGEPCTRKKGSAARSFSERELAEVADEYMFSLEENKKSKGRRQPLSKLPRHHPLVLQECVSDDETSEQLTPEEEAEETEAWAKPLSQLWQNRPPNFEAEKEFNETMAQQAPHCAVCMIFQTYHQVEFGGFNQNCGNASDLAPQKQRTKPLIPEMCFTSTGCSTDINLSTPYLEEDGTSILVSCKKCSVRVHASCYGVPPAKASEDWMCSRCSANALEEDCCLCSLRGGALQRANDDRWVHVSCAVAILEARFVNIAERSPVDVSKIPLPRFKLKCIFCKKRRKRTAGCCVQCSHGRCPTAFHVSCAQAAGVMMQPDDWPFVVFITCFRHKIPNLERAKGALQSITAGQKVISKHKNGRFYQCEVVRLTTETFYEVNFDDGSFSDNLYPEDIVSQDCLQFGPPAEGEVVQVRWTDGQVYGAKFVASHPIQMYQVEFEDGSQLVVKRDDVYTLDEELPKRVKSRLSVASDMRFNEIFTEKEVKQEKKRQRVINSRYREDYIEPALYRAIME

| Compound | Potency | activity change, negative = inhibition |
| --- | --- | --- |
| COc1ccc(/C=C/C(=O)c2ccccc2O)cc1 | active: 63.1 µM | – |
| N#CC1=C(Nc2ccc(Br)cc2)CCC1 | inconclusive: 79.4 µM [inhibitor, partial curve] | – |
| CN(Cc1ccccn1)C(=O)C1CCC(=O)N(CCc2ccc(Cl)cc2)C1 (stereo not drawn) | – | inactive: -8.9% |
| CCOC(=O)c1sc(N2C(=O)C(O)=C(C(=O)c3ccco3)C2c2ccco2)nc1C (stereo not drawn) | active: 15.8 µM | – |
| Cn1c(SCc2nc3ccccc3s2)nnc1-c1ccc2c(c1)OCO2 | active: 31.6 µM | – |
| CCC(C)NC(=O)C1CCN(C(=O)c2ccccc2)CC1 (stereo not drawn) | – | inactive: -11.7% |
| COc1c(Br)cc2c(C)c(C(=O)O)oc2c1Br | inconclusive: 70.8 µM [inhibitor, single point] | – |
| Cc1cc(C(=O)CCC(=O)N(C)CC(=O)Nc2c(Cl)cccc2Cl)c(C)s1 | – | inactive: -9.66% |
| OC(CON=C1c2ccccc2-c2ccccc21)CN1CCNCC1 (stereo not drawn) | active: 3.55 µM | – |
| CCOc1ccc(-n2c(C)cc(/C=N/N(C)C)c2C)cc1 | active: 44.7 µM | – |
| COc1ccc(CC(=O)NNC(=O)CCC(=O)Nc2cc(C)ccc2C)cc1 | inconclusive: 63.1 µM [inhibitor, partial curve, poor fit] | – |
| CCOc1ccccc1N1C(=O)c2cccnc2C1=O | inconclusive: 89.1 µM [inhibitor, single point] | – |
| Cc1ccc(CCNC(=O)c2cc3n(n2)CCCN(Cc2ccc(C)cc2)C3=O)cc1 | – | inactive: -24.5% |
| Cc1cccc(C)c1NC(=O)c1sc(-n2nc(C)c(Cc3ccccc3)c2C)nc1C | – | inactive: -2.98% |
| c1nc(NCc2ccoc2)c2cc(-c3ccc4c(c3)OCO4)ccc2n1 | inconclusive: 63.1 µM [inhibitor, partial curve, poor fit] | – |
| O=C(O)CN1C(=O)/C(=C/c2ccc(N3CCCCC3)o2)SC1=S | inconclusive: 56.2 µM [inhibitor, partial curve] | – |
| Cc1ccc(N=C2NC(=O)/C(=C/C=C/c3ccco3)S2)cc1C | active: 39.8 µM | – |
| Cc1cc(OCC(=O)N(Cc2ccc(N(C)C)cc2)CC2CCCO2)ccc1Cl (stereo not drawn) | active: 35.5 µM | – |
| O=C(CSc1nnc(-c2ccc3c(c2)OCO3)o1)Nc1ncc(C(F)(F)F)cc1Cl | – | inactive: -11.7% |
| COC(=O)c1c(NC(=O)CC2SCC(C(=O)OC)NC2=O)sc2c1CCCC2 (stereo not drawn) | inconclusive: 50.1 µM [inhibitor, partial curve] | – |
| CC1CCN(CC(=O)Nc2ccc(S(=O)(=O)N3CCC(C)CC3)cc2)CC1 | active: 0.794 µM | – |
| COc1ccc(/C=N/Nc2ccc([N+](=O)[O-])cc2)cc1O | inconclusive: 56.2 µM [inhibitor, partial curve, poor fit] | – |
| CCOC(=O)c1c2c3c(cccc3n(C)c1=O)C(=O)c1ccccc1-2 | inconclusive: 39.8 µM [inhibitor, partial curve] | – |
| CN(CC(=O)Nc1cccc(F)c1)C(=O)c1cc([N+](=O)[O-])ccc1N1CCOCC1 | – | inactive: -8.28% |
| Cc1cc(F)ccc1S(=O)(=O)Nc1ccc(C(=O)N2CCCCC2)cc1 | – | inactive: -17.9% |

| Compound | Potency | activity change, negative = inhibition |
| --- | --- | --- |
| CCOC(=O)c1c(C)oc2ncnc(Nc3ccc(OC)c(OC)c3)c12 | – | inactive: -12.2% |
| Nc1nn(S(=O)(=O)c2ccccc2)cc1-c1ccc([N+](=O)[O-])cc1 | inconclusive: 35.5 µM [inhibitor, partial curve] | – |
| Nc1c(Nc2ccccc2)c2ccccc2oc1=O | – | inactive: -33.8% |
| S=C(Nc1ccc2[nH]ccc2c1)NC1CCCCC1 | inconclusive: 50.1 µM [inhibitor, partial curve] | – |
| C#CCSc1nc2sc3c(c2c(=O)n1C)CCC3 | active: 79.4 µM | – |
| CN1CCN(C(=O)c2ccc(S(=O)(=O)Nc3ccccc3)cc2)CC1 | – | inactive: 11.3% |
| CCSc1nnc(NC(=O)CSc2sc3c(O)cc(=O)[nH]c3c2C#N)s1 | inconclusive: 63.1 µM [inhibitor, partial curve] | – |
| O=C(CCn1c2c(c3ccccc31)CCCC2)NNC(=O)c1ccc(Cl)c([N+](=O)[O-])c1 | inconclusive: 31.6 µM [inhibitor, single point] | – |
| Cc1c(N=C2SCC(=O)N2/N=C\c2ccc(Br)cc2)c(=O)n(-c2ccccc2)n1C | inconclusive: 17.8 µM [inhibitor, partial curve] | – |
| Cc1ccc(NC(=O)CN(C)C(=O)COc2cccc3cccnc23)cc1 | inconclusive: 100 µM [inhibitor, single point] | – |
| Cc1cc(NC(=O)NC2(C(F)(F)F)Oc3ccc(Cl)cc3O2)no1 (stereo not drawn) | inconclusive: 35.5 µM [inhibitor, partial curve] | – |
| CC(C)(C)OC(=O)N1CCCC1C(=O)N1CCCC1C(=O)N1CCCC1C(=O)O (stereo not drawn) (Boc-Pro-Pro-Pro-OH; configuration not given here) | inconclusive: 39.8 µM [inhibitor, single point] | – |
| C(=N\Nc1ccc2nncn2n1)/c1ccccn1 | inconclusive: 126 µM [inhibitor, partial curve, poor fit] | – |
| C=CCn1c(Cc2nc3ccccc3[nH]2)n[nH]c1=S | active: 8.91 µM | – |
| CCC12CC3CC(C1)CC(C(=O)Nc1nn[nH]n1)(C3)C2 | active: 25.1 µM | – |
| COC(=O)c1ccccc1NC(=O)c1cc(C2CC2)on1 | – | inactive: 19.7% |
| O=C(CC(=O)c1ccncc1)c1ccccc1 | active: 31.6 µM | – |
| Cc1cccc(N2CCN(C(=O)CCC(=O)N3CCOc4ccc(Cl)cc43)CC2C)c1 (stereo not drawn) | inconclusive: 50.1 µM [inhibitor, partial curve] | – |
| O=C(CNc1ccc2c(c1)OCO2)N/N=C\c1ccccc1Cl | inconclusive: 44.7 µM [inhibitor, partial curve] | – |
| CCOC(=O)/C=C(C)\C=C\c1c[nH]c2ccccc12 | inconclusive: 56.2 µM [inhibitor, partial curve] | – |
| O=C(NCC(=O)N1CCN(c2ncccn2)CC1)c1cccs1 | inconclusive: 79.4 µM [inhibitor, single point] | – |
| COc1ccc(-c2cc(C(=O)NC(C)c3ccccn3)c3ccccc3n2)cc1OC (stereo not drawn) | inconclusive: 11.2 µM [inhibitor, full curve, poor fit] | – |
| O=C(NCCCN1CCN(c2ccccc2)CC1)c1ccc2nc(Cc3ccccc3)oc2c1 | inconclusive: 44.7 µM [inhibitor, partial curve] | – |
| Cc1cc(C)c2c(-n3cccc3)c(C(=O)NNS(=O)(=O)c3ccc(Cl)cc3)sc2n1 | inconclusive: 50.1 µM [inhibitor, partial curve] | – |
| Cc1ccc(-c2nnc(SCC(=O)NCC3CCCO3)nc2-c2ccc(C)cc2)cc1 (stereo not drawn) | inconclusive: 50.1 µM [inhibitor, partial curve] | – |

| Compound | Potency | activity change, negative = inhibition |
| --- | --- | --- |
| Cc1ccc2nc(N3CCN(c4ccccc4)CC3)c(C=O)c(=O)n2c1 | inconclusive: 44.7 µM [inhibitor, partial curve] | – |
| O=C(COC(=O)c1ccccn1)Nc1nc(-c2ccccc2)cs1 | active: 79.4 µM | – |
| O=C(c1cc2nc(-c3ccco3)cc(C(F)(F)F)n2n1)N1CCN(c2ccc(F)cc2)CC1 | inconclusive: 39.8 µM [inhibitor, partial curve] | – |
| Cc1ccc(CCNc2ccc3ccccc3c2)cn1 | inconclusive: 79.4 µM [inhibitor, partial curve] | – |
| CCOc1ccc(S(=O)(=O)NNC(=O)c2cc3ccccc3o2)cc1 | inconclusive: 35.5 µM [inhibitor, partial curve] | – |
| CN1CCN(c2ccc(NC(=S)NC(=O)/C=C/c3ccco3)cc2)CC1 | inconclusive: 44.7 µM [inhibitor, partial curve] | – |
| O=C(O)COc1ccc(Br)cc1/C=N\Nc1ccccn1 | inconclusive: 7.94 µM [inhibitor, full curve, poor fit] | – |
| COC(=O)c1ccc(C2Nc3ccc(/C(C)=N/NC(=O)C(OC)c4ccccc4)cc3C3C=CCC32)cc1 (stereo not drawn) | active: 79.4 µM | – |
| Cc1cc(Cl)ccc1NS(=O)(=O)c1c(C)[nH]c(=O)[nH]c1=O | inconclusive: 89.1 µM [inhibitor, single point] | – |
| CC(CN1c2ccccc2Sc2ccccc21)N(C)C (stereo not drawn) | inconclusive: 79.4 µM [inhibitor, partial curve] | – |
| O=C(NCCc1ccccc1)C(=O)c1c(-c2ccccc2)[nH]c2ccccc12 | – | inactive: -14.8% |
| COCCn1nnnc1C(C(C)C)N1CCN(C(=O)c2ccco2)CC1 (stereo not drawn) | active: 44.7 µM | – |
| COc1ccc(CNC(=O)C[C@H]2C(=O)N(C3CCCCC3)C[C@@H]2Cc2ccccc2)cc1 | inconclusive: 28.2 µM [inhibitor, full curve, poor fit] | – |
| CCOC(=O)C(C#N)(Cc1ccc2ccccc2n1)Cc1ccc2ccccc2n1 | – | inactive: -8.97% |
| C/C(Sc1nnc(Cc2ccccc2)o1)=C(\O)c1ccccc1 | – | inactive: -6.9% |
| Cc1ccc(C(=S)N2CCN(Cc3ccccc3)CC2)s1 | inconclusive: 44.7 µM [inhibitor, partial curve] | – |
| Fc1ccc(-n2c(-c3ccc4c(c3)OCO4)n[nH]c2=S)cc1Cl | – | inactive: -19.5% [at 57.1 µM] |
| Cc1ccc(C)c(NC(=O)c2ccc(CN3CC(=O)N4CCCCC4C3=O)cc2)c1 (stereo not drawn) | – | inactive: -6.27% |
| COc1ccc(Nc2c3c(nc4ccc(NC(=O)c5ccc(F)cc5)cc24)CCCC3)cc1OC | active: 56.2 µM | – |
| Clc1ccc(CO/N=C/c2c(-c3ccccc3)nc3n2CCS3)c(Cl)c1 | inconclusive: 15.8 µM [inhibitor, full curve, poor fit] | – |
| CC(C)Cn1c(N)c(C(=O)COC(=O)[C@@H]2CCCN2C(=O)c2cccs2)c(=O)n(C)c1=O | – | inactive: -14% |
| Cc1cc(N2CCN(Cc3cn(C)nc3-c3cccc(Cl)c3)CC2)cc(C)n1 | – | inactive: -15.1% |
| Cc1ccc2nc(SCc3nc4ccccc4c(=O)[nH]3)[nH]c2c1 | inconclusive: 63.1 µM [inhibitor, partial curve, poor fit] | – |
